This sample is rich in variants without activity.
B1: TPR 5TU (parent)
chain: GGAUCUUCUCGAUCUAACAAAAAAGACAAAUCUGCCACAAAGCUUGAGAGCAUCUUCGGAUGCAGAGGCGGCAGCCUUCGGUGGCGCGAUAGCGCCAACGUUCUCAACUAUGACACGCAAAACGCGUGCUCCGUUGAAUGGAGUUUAUCAUG

Variants of: B1
Assay: polymerase ribozyme fitness, log enrichment relative to wild type (log ratio); higher = more active; in vitro selection for triplet polymerase activity
How it was run: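 Streptavidin-bead capture of gel-excised extended constructs, followed by RT-PCR, closed a single triplicate in vitro selection round. That round began by annealing PCR-built, transcribed mutant libraries of each subunit of a heterodimeric triplet polymerase ribozyme with a biotinylated primer, the partner subunit and triplets, then incubating them frozen at −7 °C. After Illumina sequencing of inputs and outputs, genotypes needed ≥10 input reads and ≥1 read per output. Fitness is the base-2 logarithm of genotype enrichment over wild-type enrichment, using inverse-variance-weighted replicate averages.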
In the case of GGAUCUUCUCGAUCUAACAAAAAAGACAAAUCUGCCACAAAGCUUGAGAGCAUCUUCGGAUGCAGAGGCGGCAGCCUUCGGUGGCGCGAUAGCGUUAACGUUCUCAACUAUGACACGCAAAACUCGUGCUCCGUUCAAUGGAGUUUAUCAUG, the “polymerase ribozyme fitness (log ratio)” value is reported as -3.61.
For GGAUCUUCUCGAUCUAACAAAAAAGACAAAUCUGCCACAAAGCUUGAGAGCAUCUUCGGAUGCAGAGGCGGCAGCCUUCGGUGGCGCGAUAGCGCAAACGUUCUCAACUAUGACACGCAAAACGCGUGCUCCGUUGAUUGGAGUUUAUCAUG, the “polymerase ribozyme fitness (log ratio)” value was at most -4.2.
For GGAUCUUCUCGAUCUAACAAAAAAGACAAAUCUGCCACAAAGCUUGAGAGCAUCUUCGGAUGCAGAGGCGGCAGCCUUCGGUGGCGCGAUAGCGUCAACGUUCUCAACUAUGAUACGCAAAACGCGUGCUCCGUUGAAUGGAGUUUAUCAUG, the “polymerase ribozyme fitness (log ratio)” value was -1.72.
For GGAUCUUCUCGAUCUAACAAAAAAGACAAAUCUGCCACAAAGCUUGAGAGCAUCUUCGGAUGCAGAGGCGGCAGCCUUCGGUGGCGCGAUAGUGCCAACGUUCAUAACUAUGACACGCUAAACGCGUGCUCCGUUGAAUGGAGUUUAUCAUG, the “polymerase ribozyme fitness (log ratio)” value was at most -4.2.
For GGAUCUUCUCGAUCUAACAAAAAAGACAAAUCUGCCACAAAGCUUGAGAGCAUCUUCGGAUGCAGAGGCGGCAGCCUUCGGUGGCGCGAUAGCACCAACGUUCUCAAAUAUGACACGCAAAACGCGUGCUCCGUUGCAUGGAGUUUAUCAUG, the “polymerase ribozyme fitness (log ratio)” value was at most -4.2.
With GGAUCUUCUCGAUCUAACAAAAAAGACAAAUCUGCCACAAAGCUUGAGAGCAUCUUCGGAUGCAGAGGCGGCAGCCUUCGGUGGCGCGAUAGCACCAACGUUCUGAACUAUGACAAGCAAAACGCGUGCUCCGUUGAAUGCAGUUUAUCAUG the “polymerase ribozyme fitness (log ratio)” value was at most -4.2.
In the case of GGAUCUUCUCGAUCUAACAAAAAAGACAAAUCUGCCACAAAGCUUGAGAGCAUCUUCGGAUGCAGAGGCGGCAGCCUUCGGUGGCGCGAUAGCCCCAACGCUCUCAACUAUGACACGCAAAACGCGUGCUCCGUUGAAUGGAGUUUAUCAUG, the “polymerase ribozyme fitness (log ratio)” value is reported as -0.185.
With GGAUCUUCUCGAUCUAACAAAAAAGACAAAUCUGCCACAAAGCUUGAGAGCAUCUUCGGAUGCAGAGGCGGCAGCCUUCGGUGGCGCGAUAGCACCAACGUUCUCAACUAUGACACGCAAAACGCGUGCUCCGUUGAAUGUAGUUUAUCAUG the “polymerase ribozyme fitness (log ratio)” value was 0.898.
For GGAUCUUCUCGAUCUAACAAAAAAGACAAAUCUGCCACAAAGCUUGAGAGCAUCUUCGGAUGCAGAGGCGGCAGCCUUCGGUGGCGCGAUAGCGUCAACGUUCUGACCUAUGACACGCAAAACGCGUGCUCCGUUGAAUGGAGUUUAUGAUG, the “polymerase ribozyme fitness (log ratio)” value was at most -4.2.
With GGAUCUUCUCGAUCUAACAAAAAAGACAAAUCUGCCACAAAGCUUGAGAGCAUCUUCGGAUGCAGAGGCGGCAGCCUUCGGUGGCGCGAUAGCCCCAACGUUCUAAACUAUGACACGCAAAACGCGUGCUCCGUUGAAUGGAGUUUAUCAUG the “polymerase ribozyme fitness (log ratio)” value was -1.22.
For GGAUCUUCUCGAUCUAACAAAAAAGACAAAUCUGCCACAAAGCUUGAGAGCAUCUUCGGAUGCAGAGGCGGCAGCCUUCGGUGGCGCGAUAGCACCAACGUUCUCAACUAUGACACGCAAAAGGCGUGCUCCGUUGAAUGGAGUUGAUCAUG, the “polymerase ribozyme fitness (log ratio)” value was -1.05.
For GGAUCUUCUCGAUCUAACAAAAAAGACAAAUCUGCCACAAAGCUUGAGAGCAUCUUCGGAUGCAGAGGCGGCAGCCUUCGGUGGCGCGAUAGUGCCAACGUUCUCAACUAUGACACGCAAAACGCGUGCUCCGUUCAAUGGAGUUUAUCAUG, the “polymerase ribozyme fitness (log ratio)” value was -4.02.
For GGAUCUUCUCGAUCUAACAAAAAAGACAAAUCUGCCACAAAGCUUGAGAGCAUCUUCGGAUGCAGAGGCGGCAGCCUUCGGUGGCGCGAUAGCGGGAACGUUCUCAACUAUGACACGCAAAACGCGUGCUCCGUUGAAUGGAGUUUAUCAUG, the “polymerase ribozyme fitness (log ratio)” value was -2.17.
In the case of GGAUCUUCUCGAUCUAACAAAAAAGACAAAUCUGCCACAAAGCUUGAGAGCAUCUUCGGAUGCAGAGGCGGCAGCCUUCGGUGGCGCGAUAGCCCCAACGUUCUCAACUAUGACAUGCAAAACGCGUGCUCCGUUGAAUGGAGUUUAUCAUG, the “polymerase ribozyme fitness (log ratio)” value is reported as -0.0318.
For GGAUCUUCUCGAUCUAACAAAAAAGACAAAUCUGCCACAAAGCUUGAGAGCAUCUUCGGAUGCAGAGGCGGCAGCCUUCGGUGGCGCGAUAGCCCCUACGUUAUCAACUAUGACACGCAAAACGUGUGCUCCGUUGAAAGGAGUUUAUCAUG, the “polymerase ribozyme fitness (log ratio)” value was at most -4.2.
In the case of GGAUCUUCUCGAUCUAACAAAAAAGACAAAUCUGCCACAAAGCUUGAGAGCAUCUUCGGAUGCAGAGGCGGCAGCCUUCGGUGGCGCGAUAGCCCCAACGUUCUCAAGUAUGACACGCAAAACGCGUGCUCCGUUGAAUGGAGUUUAUCAUG, the “polymerase ribozyme fitness (log ratio)” value is reported as at most -4.2.
In the case of GGAUCUUCUCGAUCUAACAAAAAAGACAAAUCUGCCACAAAGCUUGAGAGCAUCUUCGGAUGCAGAGGCGGCAGCCUUCGGUGGCGCGAUAGUGCCAACGUUCUCAACUAUGACACGCAAAACGCGUGCUCCGUUGAAUGGAGGUUAUCAUG, the “polymerase ribozyme fitness (log ratio)” value is reported as -0.253.
For GGAUCUUCUCGAUCUAACAAAAAAGACAAAUCUGCCACAAAGCUUGAGAGCAUCUUCGGAUGCAGAGGCGGCAGCCUUCGGUGGCGCGAUAGCCCCAACGUUCUCAACUAUGACACGCAAAACGCAUGCUCAGUUGAAUGGAGUUUAUCAUG, the “polymerase ribozyme fitness (log ratio)” value was -2.93.
With GGAUCUUCUCGAUCUAACAAAAAAGACAAAUCUGCCACAAAGCUUGAGAGCAUCUUCGGAUGCAGAGGCGGCAGCCUUCGGUGGCGCGAUAGCCCCAACGUUCUCCACUAUGACACGCAAAACGCGUGCUCCGUUUAAUGGAGUUUACCAUG the “polymerase ribozyme fitness (log ratio)” value was at most -4.2.
With GGAUCUUCUCGAUCUAACAAAAAAGACAAAUCUGCCACAAAGCUUGAGAGCAUCUUCGGAUGCAGAGGCGGCAGCCUUCGGUGGCGCGAUAGCGUCAACGUUCUGAACUAUGACACGCAAAACGCGUGCUCCGUUGAAUGGAGUUUAUCAUG the “polymerase ribozyme fitness (log ratio)” value was -0.337.
For GGAUCUUCUCGAUCUAACAAAAAAGACAAAUCUGCCACAAAGCUUGAGAGCAUCUUCGGAUGCAGAGGCGGCAGCCUUCGGUGGCGCGAUAGCCCCAACGUUCUCAACUAUGACACGCAAAACGCGUGCUUCGUUGAAUGGAGUUUAUCAUG, the “polymerase ribozyme fitness (log ratio)” value was -1.79.
For GGAUCUUCUCGAUCUAACAAAAAAGACAAAUCUGCCACAAAGCUUGAGAGCAUCUUCGGAUGCAGAGGCGGCAGCCUUCGGUGGCGCGAUAGCACCAACGUUCUCAACUAUGACACGCAAAACGCGUGCUCCGUUGAAUGGAGUUGAUCAUG, the “polymerase ribozyme fitness (log ratio)” value was -1.25.
With GGAUCUUCUCGAUCUAACAAAAAAGACAAAUCUGCCACAAAGCUUGAGAGCAUCUUCGGAUGCAGAGGCGGCAGCCUUCGGUGGCGCGAUAGCGUCAGCGUUCUUAACUAUGACACGCAAAACGCGUGCUCCGUUGAAUGGAGUUUAUCAUG the “polymerase ribozyme fitness (log ratio)” value was 0.768.
In the case of GGAUCUUCUCGAUCUAACAAAAAAGACAAAUCUGCCACAAAGCUUGAGAGCAUCUUCGGAUGCAGAGGCGGCAGCCUUCGGUGGCGCGAUAGUGCCAACGUUCUCAACUAUGACACGCAAAACGCGUGCUCCGUAGAAUGGAGUUUAUCAUG, the “polymerase ribozyme fitness (log ratio)” value is reported as -2.01.
In the case of GGAUCUUCUCGAUCUAACAAAAAAGACAAAUCUGCCACAAAGCUUGAGAGCAUCUUCGGAUGCAGAGGCGGCAGCCUUCGGUGGCGCGAUAGCGUCAACGUUCUCAACUAUGACAAGCAAAACGCGUGGUCCGUUGAAUGGAGUUUAGCAUG, the “polymerase ribozyme fitness (log ratio)” value is reported as at most -4.2.
With GGAUCUUCUCGAUCUAACAAAAAAGACAAAUCUGCCACAAAGCUUGAGAGCAUCUUCGGAUGCAGAGGCGGCAGCCUUCGGUGGCGCGAUAGCACCAACGUUCUCAACUAUGAUACGCAAAACGCGUGCUCCGUUGAAUGGAGUUUAUCAUG the “polymerase ribozyme fitness (log ratio)” value was -1.93.
For GGAUCUUCUCGAUCUAACAAAAAAGACAAAUCUGCCACAAAGCUUGAGAGCAUCUUCGGAUGCAGAGGCGGCAGCCUUCGGUGGCGCGAUAGCGUCAACGUACUCAACUAUGCCACGCAAAACGCGUGCUCCGUUGAAUGGAGUUUAUGAUG, the “polymerase ribozyme fitness (log ratio)” value was at most -4.2.
For GGAUCUUCUCGAUCUAACAAAAAAGACAAAUCUGCCACAAAGCUUGAGAGCAUCUUCGGAUGCAGAGGCGGCAGCCUUCGGUGGCGCGAUAGCGUCAACGGUCUUAACUAUGACACGCAAAACGUGUGCUCCGUUGAAUGGUGUUUAUCAUG, the “polymerase ribozyme fitness (log ratio)” value was at most -4.2.
With GGAUCUUCUCGAUCUAACAAAAAAGACAAAUCUGCCACAAAGCUUGAGAGCAUCUUCGGAUGCAGAGGCGGCAGCCUUCGGUGGCGCGAUAGCUCCAACGUUCUCAACUAUGACACGCAAAACGCGUGCUCCGUUGAAUAUAGUUUAUCAUG the “polymerase ribozyme fitness (log ratio)” value was at most -4.2.
In the case of GGAUCUUCUCGAUCUAACAAAAAAGACAAAUCUGCCACAAAGCUUGAGAGCAUCUUCGGAUGCAGAGGCGGCAGCCUUCGGUGGCGCGAUAGCUCCAACGUUCCCAACUAUGACACGCAAAACGCGUGUUCCGAUGAAUGGAGUUUAUCAUG, the “polymerase ribozyme fitness (log ratio)” value is reported as at most -4.2.
With GGAUCUUCUCGAUCUAACAAAAAAGACAAAUCUGCCACAAAGCUUGAGAGCAUCUUCGGAUGCAGAGGCGGCAGCCUUCGGUGGCGCGAUAGCGUCAACGUUCUCAACUAUGGCACGCAAAACGCGUGCUCCGUUGAAUGGAGUUUAUGAUG the “polymerase ribozyme fitness (log ratio)” value was at most -4.2.
For GGAUCUUCUCGAUCUAACAAAAAAGACAAAUCUGCCACAAAGCUUGAGAGCAUCUUCGGAUGCAGAGGCGGCAGCCUUCGGUGGCGCGAUAGCACGAACGUUCUCAACUAUGACACGCAAAACGCGUGCUCCGUUGAAUGGAGUUUAACAUG, the “polymerase ribozyme fitness (log ratio)” value was at most -4.2.
In the case of GGAUCUUCUCGAUCUAACAAAAAAGACAAAUCUGCCACAAAGCUUGAGAGCAUCUUCGGAUGCAGAGGCGGCAGCCUUCGGUGGCGCGAUAGCUCCAACGUUCUCAACUAUGGCACGCAAAACGCGUGCUCCGUUGAAUGGUGUUUAUCAUG, the “polymerase ribozyme fitness (log ratio)” value is reported as at most -4.2.
With GGAUCUUCUCGAUCUAACAAAAAAGACAAAUCUGCCACAAAGCUUGAGAGCAUCUUCGGAUGCAGAGGCGGCAGCCUUCGGUGGCGCGAUAGCGUCAACGUUCUCAGCUAUGACACGCAAAACGCGUGCUCCGUUGAAUGGAGUUUAUCAUG the “polymerase ribozyme fitness (log ratio)” value was -4.16.
For GGAUCUUCUCGAUCUAACAAAAAAGACAAAUCUGCCACAAAGCUUGAGAGCAUCUUCGGAUGCAGAGGCGGCAGCCUUCGGUGGCGCGAUAGCGUCACCGUUCUCAACUAUGACACGCAAAACGCGUGCUCCGUUGAAUGGAGUUUAUCAUG, the “polymerase ribozyme fitness (log ratio)” value was -1.
With GGAUCUUCUCGAUCUAACAAAAAAGACAAAUCUGCCACAAAGCUUGAGAGCAUCUUCGGAUGCAGAGGCGGCAGCCUUCGGUGGCGCGAUAGCCCCAACGUACUCAACUAUGACACGCAAAACGCGUGCUCCGUUGAAUGGAGUUUAUGAUG the “polymerase ribozyme fitness (log ratio)” value was at most -4.2.
With GGAUCUUCUCGAUCUAACAAAAAAGACAAAUCUGCCACAAAGCUUGAGAGCAUCUUCGGAUGCAGAGGCGGCAGCCUUCGGUGGCGCGAUAGCGUCAACGUCCUCAACUAUGACACGCAAAACGCGUGCUCCGUUGAAUGGAGUUUAUCAUG the “polymerase ribozyme fitness (log ratio)” value was -1.06.
For GGAUCUUCUCGAUCUAACAAAAAAGACAAAUCUGCCACAAAGCUUGAGAGCAUCUUCGGAUGCAGAGGCGGCAGCCUUCGGUGGCGCGAUAGCCCCAACGUUCUCAACUAUGACACGCAUAACGCGUGCUCCGUUGAAAGGAGUUUAUCAUG, the “polymerase ribozyme fitness (log ratio)” value was at most -4.2.

Source: the RNAGym collection of RNA variant scans (doi:10.1073/pnas.2313332121)
